{"source": "PubChem BioAssay (NCATS)", "key": {"[1]": {"biological_target": "Calcium and integrin-binding protein 1 (Homo sapiens) (UniProt Q99828)", "sequence (Q99828 whole entry, looked up)": "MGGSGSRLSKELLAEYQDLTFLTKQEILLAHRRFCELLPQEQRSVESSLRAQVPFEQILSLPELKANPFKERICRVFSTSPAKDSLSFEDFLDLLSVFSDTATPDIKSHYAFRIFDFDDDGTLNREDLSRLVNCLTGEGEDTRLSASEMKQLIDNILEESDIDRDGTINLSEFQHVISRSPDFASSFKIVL", "assay": "Primary qHTS for Identification of Calcium Integrin Binding Protein 1 (CIB1) Competitor (AID 1508620); note: potency is the fitted concentration of half-maximal effect;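 for activity change, negative = inhibition: GST tagged CIB1 binding a fluorescein labelled alphaIIb integrin peptide tracer; top concentration of the series differs between compounds; % is set by controls: 0 for no effect and ±100 for the full control effect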", "method_in_brief": "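CIB1-GST (1 uM final) and compound incubated 15 min at room temperature before adding FITC-alphaIIb peptide tracer (100 nM final). Competition for binding read by fluorescence polarization (ex 480, em 540) after another 15 min at room temperature.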"}, "[2]": {"assay": "Primary qHTS for small molecule stabilizers of the endoplasmic reticulum resident proteome: Secreted ER Calcium Modulated Protein (SERCaMP) assay (AID 1508630); note: potency is the fitted concentration of half-maximal effect", "details": "SH-SY5Y GLuc-SERCaMP (Gaussia luciferase released on ER calcium loss) secretion, thapsigargin, luminescence; activity change, negative = inhibition: at 38.4 µM (top of the series)", "method_in_brief": "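The SH-SY5Y reporter protocol was run at 3 concentrations up to 38.3 uM (primary) or 11 concentrations (follow-up): 16 h compound, 100 nM thapsigargin for 4 h, then extracellular luciferase luminescence.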"}, "[3]": {"assay": "Counterscreen qHTS for small molecule stabilizers of the endoplasmic reticulum resident proteome: GLuc-NoTag assay (AID 1508627); note: potency is the fitted concentration of half-maximal effect", "details": "Gaussia luciferase NoTag secretion counterscreen, luminescence; thapsigargin 100 nM for final 4 h", "method_in_brief": "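Counterscreen line: SH-SY5Y-GLuc-NoTag cells, treated with compound 19 hr before a 4 hr, 100 nM thapsigargin calcium depletion. Secreted Gaussia luciferase in the medium was measured by luminescence after coelenterazine was added (0.07x final), with cells unlysed.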"}, "[4]": {"assay": "Confirmatory qHTS for small molecule stabilizers of the endoplasmic reticulum resident proteome: Secreted ER Calcium Modulated Protein (SERCaMP) assay (AID 1508628); note: nearly all actives have a fitted effect of over 40% in size; note: potency is the fitted concentration of half-maximal effect", "method_in_brief": "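Reporter secretion upon ER calcium depletion (100 nM thapsigargin, 4 h, 37C) is measured as medium luminescence with coelenterazine, after 16 h compound pretreatment of SH-SY5Y-GLuc-SERCaMP cells; primary at three concentrations up to 38.3 uM, follow-up at 11 (up to 76.6 uM).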"}, "[5]": {"assay": "Cell Viability qHTS for small molecule stabilizers of the endoplasmic reticulum resident proteome (AID 1508629);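 note: compound exposure about 46 h in total before the viability read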; note: potency is the fitted concentration of half-maximal effect;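 for max response: human SH-SY5Y neuroblastoma cells carrying the GLuc-SERCaMP reporter; % is set by controls: 0 for no effect and ±100 for the full control effect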", "details": "cell viability counter-screen, 100 nM thapsigargin for final 4 h"}, "[6]": {"assay": "Primary qHTS for inhibitors of nuclear receptor binding SET domain protein 2 (NSD2) in an RCH-ACV wild type WT cells (2C) (AID 1645877); note: potency is the fitted concentration of half-maximal effect; nearly all actives have a fitted effect of over 70% in size"}, "[7]": {"biological_target": "Rap guanine nucleotide exchange factor 3 (Homo sapiens) (UniProt O95398)", "sequence (O95398 whole entry, looked up)": "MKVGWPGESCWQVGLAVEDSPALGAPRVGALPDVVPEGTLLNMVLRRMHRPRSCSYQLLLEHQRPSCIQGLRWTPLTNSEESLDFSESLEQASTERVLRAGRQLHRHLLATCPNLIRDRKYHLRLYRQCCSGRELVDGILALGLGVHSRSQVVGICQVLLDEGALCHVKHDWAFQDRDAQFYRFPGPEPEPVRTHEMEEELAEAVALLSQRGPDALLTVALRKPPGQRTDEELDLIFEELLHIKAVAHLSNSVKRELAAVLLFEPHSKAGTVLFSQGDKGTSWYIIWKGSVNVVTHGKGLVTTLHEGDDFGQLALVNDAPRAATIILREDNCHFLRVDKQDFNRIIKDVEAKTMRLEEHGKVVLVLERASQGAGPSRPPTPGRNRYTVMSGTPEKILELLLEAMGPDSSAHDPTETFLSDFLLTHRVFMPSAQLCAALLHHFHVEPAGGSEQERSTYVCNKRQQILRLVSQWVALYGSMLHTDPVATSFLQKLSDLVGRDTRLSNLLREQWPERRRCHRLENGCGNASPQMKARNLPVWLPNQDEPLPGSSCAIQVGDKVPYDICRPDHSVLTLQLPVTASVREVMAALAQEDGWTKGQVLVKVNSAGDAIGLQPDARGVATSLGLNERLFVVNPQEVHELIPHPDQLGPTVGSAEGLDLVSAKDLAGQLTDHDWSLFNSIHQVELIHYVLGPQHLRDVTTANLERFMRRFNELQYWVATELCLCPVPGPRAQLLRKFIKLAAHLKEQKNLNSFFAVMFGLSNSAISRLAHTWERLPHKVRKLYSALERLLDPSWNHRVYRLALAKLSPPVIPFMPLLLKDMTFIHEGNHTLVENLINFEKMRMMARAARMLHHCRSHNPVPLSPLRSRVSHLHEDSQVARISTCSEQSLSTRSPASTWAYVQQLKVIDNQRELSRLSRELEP", "assay": "Confirmatory qHTS for antagonist of cAMP-regulated guanine nucleotide exchange factor 3 (EPAC1) (AID 1645880); note: potency is the fitted concentration of half-maximal effect; nearly all actives have a fitted effect of over 55% in size", "details": "EPAC1 Rap1B-BODIPY-GDP exchange, fluorescence", "method_in_brief": "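Released BODIPY-GDP fluoresces less than Rap1-bound BODIPY-GDP; the signal is followed at 480/540 nm at 5-min intervals over 30 min, after 5 min at room temperature. Reactions contain 100 nM EPAC1, 250 nM RAP1B-BODIPY-GDP and 50 uM GDP; results are normalized to ATA and DMSO.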"}, "[8]": {"biological_target": "Rap guanine nucleotide exchange factor 4 (Homo sapiens) (UniProt Q8WZA2)", "sequence (Q8WZA2 whole entry, looked up)": "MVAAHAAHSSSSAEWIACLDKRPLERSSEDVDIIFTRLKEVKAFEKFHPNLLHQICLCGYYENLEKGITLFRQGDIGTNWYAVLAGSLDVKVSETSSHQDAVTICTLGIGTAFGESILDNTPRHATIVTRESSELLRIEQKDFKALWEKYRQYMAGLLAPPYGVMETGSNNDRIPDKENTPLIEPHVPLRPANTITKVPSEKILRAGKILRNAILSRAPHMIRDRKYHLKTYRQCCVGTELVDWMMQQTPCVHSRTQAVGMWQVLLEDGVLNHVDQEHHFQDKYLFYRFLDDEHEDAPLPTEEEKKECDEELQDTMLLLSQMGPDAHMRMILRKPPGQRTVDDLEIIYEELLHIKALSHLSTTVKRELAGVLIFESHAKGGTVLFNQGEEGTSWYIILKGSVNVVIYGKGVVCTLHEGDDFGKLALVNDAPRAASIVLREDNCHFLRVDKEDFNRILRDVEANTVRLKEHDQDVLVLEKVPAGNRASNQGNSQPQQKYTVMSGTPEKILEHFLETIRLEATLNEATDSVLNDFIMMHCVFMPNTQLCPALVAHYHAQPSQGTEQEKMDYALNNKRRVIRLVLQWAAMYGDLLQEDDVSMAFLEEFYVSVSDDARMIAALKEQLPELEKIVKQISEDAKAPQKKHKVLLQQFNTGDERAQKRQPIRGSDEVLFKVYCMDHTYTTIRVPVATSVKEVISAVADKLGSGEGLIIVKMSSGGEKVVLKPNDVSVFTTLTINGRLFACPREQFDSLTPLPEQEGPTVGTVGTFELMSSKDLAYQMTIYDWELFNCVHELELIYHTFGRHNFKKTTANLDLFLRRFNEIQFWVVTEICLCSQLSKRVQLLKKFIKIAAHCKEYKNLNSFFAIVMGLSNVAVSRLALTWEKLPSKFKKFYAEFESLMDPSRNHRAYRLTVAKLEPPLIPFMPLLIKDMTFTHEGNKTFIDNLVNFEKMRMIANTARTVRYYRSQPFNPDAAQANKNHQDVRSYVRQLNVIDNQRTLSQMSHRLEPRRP", "assay": "Confirmatory qHTS for antagonist of cAMP-regulated guanine nucleotide exchange factor 4 (EPAC2) (AID 1645885); note: nearly all actives have a fitted effect of over 25% in size; note: potency is the fitted concentration of half-maximal effect; for activity change, negative = inhibition: % is set by controls: 0 for no effect and ±100 for the full control effect"}, "[9]": {"biological_target": "Cytochrome P450 2D6 (Homo sapiens) (UniProt P10635)", "sequence (P10635 whole entry, looked up)": "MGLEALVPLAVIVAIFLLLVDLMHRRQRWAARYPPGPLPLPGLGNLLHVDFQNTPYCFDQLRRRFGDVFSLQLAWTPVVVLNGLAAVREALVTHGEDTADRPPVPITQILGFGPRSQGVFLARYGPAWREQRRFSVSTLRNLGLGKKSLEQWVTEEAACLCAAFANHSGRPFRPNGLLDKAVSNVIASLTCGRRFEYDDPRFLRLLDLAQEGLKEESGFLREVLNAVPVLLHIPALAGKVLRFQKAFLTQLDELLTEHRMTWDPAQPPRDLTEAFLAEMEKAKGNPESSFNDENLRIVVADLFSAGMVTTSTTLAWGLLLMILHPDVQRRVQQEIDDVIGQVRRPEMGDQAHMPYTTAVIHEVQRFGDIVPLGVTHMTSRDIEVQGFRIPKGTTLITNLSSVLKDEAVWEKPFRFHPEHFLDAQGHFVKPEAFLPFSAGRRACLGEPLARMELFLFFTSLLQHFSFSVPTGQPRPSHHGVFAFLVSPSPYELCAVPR", "assay": "Cytochrome P450 family 2 subfamily D member 6 (CYP2D6) small molecule antagonists: luciferase biochemical (cell-free) qHTS assay (AID 1645840; active = well fitted curve in the direction sought with a large enough effect in the repeat runs; inconclusive = weak or mixed curves; inactive = no such curve, though single readings can be large; an effect the other way counts as inactive or inconclusive; note: nearly all actives have a fitted effect of over 55% in size; note: potency is the fitted concentration of half-maximal effect; for activity change, negative = inhibition: % is set by controls: 0 for no effect and ±100 for the full control effect)", "method_in_brief": "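P450-Glo CYP2D6 system: proluciferin substrate converted by enzyme to luciferin, read by luminescence proportional to activity. Enzyme-substrate mix with compound 10 min at room temperature, then NADPH regeneration 1 h before detection reagent.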"}, "[10]": {"assay": "Primary qHTS for inhibitors of nuclear receptor binding SET domain protein 2 (NSD2) in an isogenic RCH-ACV NSD2 p.E1099K mutant (9B) (AID 1645876); note: nearly all actives have a fitted effect of over 70% in size; note: potency is the fitted concentration of half-maximal effect"}, "[11]": {"biological_target": "Cytochrome P450 3A4 (Homo sapiens) (UniProt P08684)", "sequence (P08684 whole entry, looked up)": "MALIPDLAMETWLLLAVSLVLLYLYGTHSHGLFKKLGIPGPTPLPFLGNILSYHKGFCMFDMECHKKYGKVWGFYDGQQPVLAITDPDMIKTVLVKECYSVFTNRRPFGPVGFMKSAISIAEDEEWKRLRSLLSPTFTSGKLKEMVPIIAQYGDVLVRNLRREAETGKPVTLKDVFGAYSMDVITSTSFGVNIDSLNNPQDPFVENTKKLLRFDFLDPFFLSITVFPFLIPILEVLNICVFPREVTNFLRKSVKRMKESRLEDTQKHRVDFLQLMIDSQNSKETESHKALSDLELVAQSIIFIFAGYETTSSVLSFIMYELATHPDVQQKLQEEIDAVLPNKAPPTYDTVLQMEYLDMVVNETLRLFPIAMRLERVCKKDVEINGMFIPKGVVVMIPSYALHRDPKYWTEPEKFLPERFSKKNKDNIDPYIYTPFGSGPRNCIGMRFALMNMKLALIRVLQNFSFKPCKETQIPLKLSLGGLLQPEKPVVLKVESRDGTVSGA", "assay": "Cytochrome P450 family 3 subfamily A member 4 (CYP3A4) small molecule antagonists: luciferase qHTS assay (AID 1645841; active = well fitted curve in the direction sought with a large enough effect in the repeat runs; inconclusive = weak or mixed curves; inactive = no such curve, though single readings can be large; an effect the other way counts as inactive or inconclusive; note: nearly all actives have a fitted effect of over 45% in size)", "method_in_brief": "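Luminescent CYP3A4 activity readout: compounds plus enzyme-substrate mix 10 min at room temperature, reaction started with NADPH regenerating system for 1 h, stopped with detection reagent, read after 20 min. Ketoconazole served as control.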"}, "[12]": {"assay": "A High-Content qHTS Against Drug Library for the Identification of Small Molecules that Inhibit DYT1 Early Onset Primary Dystonia-Associated Cell Pathology (AID 1645839; calls by dose curve; note: potency is the fitted concentration of half-maximal effect)", "method_in_brief": "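High-content imaging quantified EGFP-TorsinA mislocalization in HEK293-derived cells inducibly expressing DYT1 mutant torsinA, after 48 h exposure to compound given together with tetracycline induction. Cell count served as a toxicity channel alongside %pathology.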"}, "[13]": {"biological_target": "Cytochrome P450 2C9 (Homo sapiens) (UniProt P11712)", "sequence (P11712 whole entry, looked up)": "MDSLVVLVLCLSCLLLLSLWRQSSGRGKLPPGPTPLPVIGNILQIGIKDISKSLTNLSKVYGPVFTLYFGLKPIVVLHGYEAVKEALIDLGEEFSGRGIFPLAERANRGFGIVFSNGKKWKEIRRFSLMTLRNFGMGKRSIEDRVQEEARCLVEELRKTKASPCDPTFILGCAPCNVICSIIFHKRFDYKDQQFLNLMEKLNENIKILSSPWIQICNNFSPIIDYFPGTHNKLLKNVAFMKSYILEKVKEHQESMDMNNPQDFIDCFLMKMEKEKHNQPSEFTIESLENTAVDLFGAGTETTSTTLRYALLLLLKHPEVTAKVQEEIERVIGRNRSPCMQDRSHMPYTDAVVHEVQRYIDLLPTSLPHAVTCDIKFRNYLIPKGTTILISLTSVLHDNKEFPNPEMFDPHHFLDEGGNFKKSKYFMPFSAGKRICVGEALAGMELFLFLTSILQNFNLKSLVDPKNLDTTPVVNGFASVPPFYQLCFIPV", "assay": "Cytochrome P450 family 2 subfamily C member 9 (CYP2C9) small molecule antagonists: luciferase biochemical (cell-free) qHTS assay (AID 1645842; active = well fitted curve in the direction sought with a large enough effect in the repeat runs; inconclusive = weak or mixed curves; inactive = no such curve, though single readings can be large; an effect the other way counts as inactive or inconclusive; note: potency is the fitted concentration of half-maximal effect; nearly all actives have a fitted effect of over 55% in size)", "method_in_brief": "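P450-Glo CYP2C9 system: proluciferin substrate with enzyme in mix containing 0.4% BSA, 10 min at room temperature, then NADPH regeneration solution added and incubated 1 h at 37C. Detection reagent stopped reaction; luminescence read after 20 min as RLU.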"}, "Papain (Carica papaya)": {"biological_target": "Papain (Carica papaya) (UniProt P00784)", "sequence (P00784 whole entry, looked up)": "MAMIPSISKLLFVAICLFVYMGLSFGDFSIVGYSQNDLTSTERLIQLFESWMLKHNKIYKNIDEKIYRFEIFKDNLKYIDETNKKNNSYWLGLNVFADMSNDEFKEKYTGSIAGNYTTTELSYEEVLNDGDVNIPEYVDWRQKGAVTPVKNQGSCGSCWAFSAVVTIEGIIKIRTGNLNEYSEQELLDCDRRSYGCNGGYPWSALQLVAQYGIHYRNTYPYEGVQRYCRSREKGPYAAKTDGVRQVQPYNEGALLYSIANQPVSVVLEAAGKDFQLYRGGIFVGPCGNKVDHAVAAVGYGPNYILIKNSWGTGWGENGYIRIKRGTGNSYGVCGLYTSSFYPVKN", "assay": "Primary qHTS assay for inhibitors of the protease papain (AID 1645873);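 note: papain turnover of Z-FR-AMC read as the AMC fluorescence gain over 10 min; potency is the fitted concentration of half-maximal effect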"}, "[14]": {"biological_target": "Rap guanine nucleotide exchange factor 4 (Homo sapiens) (UniProt Q8WZA2)", "assay": "Confirmatory qHTS for agonist of cAMP-regulated guanine nucleotide exchange factor 4 (EPAC2) (AID 1645884);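 note: nucleotide exchange releases bodipy-GDP from Rap1 and this lowers its fluorescence; potency is the fitted concentration of half-maximal effect; nearly all actives have a fitted effect of over 65% in size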", "details": "EPAC2 GEF activity, Rap1B-BODIPY-GDP fluorescence; activation: at 51.3 µM (top of the series), percent relative to cAMP agonist control"}, "[15]": {"biological_target": "Rap guanine nucleotide exchange factor 3 (Homo sapiens) (UniProt O95398)", "assay": "Counterscreen qHTS for agonist of cAMP-regulated guanine nucleotide exchange factor 3 (EPAC1) (AID 1645889); note: potency is the fitted concentration of half-maximal effect; nearly all actives have a fitted effect of over 40% in size", "method_in_brief": "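Rap1B-BODIPY-GDP 250 nM + GDP 50 uM; cpds 7-pt, final 9.74 nM–152 uM (activator mode) or from 7.32 nM upwards (inhibitor mode); RT; FI 480/540 nm at 5 and 30 min, then ± cAMP, reread.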"}}, "note": "“And” between values parts separate entries of the source, which are not always exact repeats. Identical values can stand only once. This list was built around the results that the source calls inconclusive (neither active nor inactive); the mix of calls is not that of the screen. For some assays here: Where the call is inconclusive, the potency comes from a doubtful curve fit. The source made the active and inactive calls. Unless noted, calls come from the whole dose curve; as a rule, active = well fitted curve in the direction sought with a large enough effect; inconclusive = small, poorly fitted or top-dose-only effect, or another doubt; inactive = no such curve, though single readings can be large; an effect the other way counts as inactive or inconclusive. Tags give direction and shape of the fitted curve."}
{"molecule": "CN(C)CCC=C1c2ccccc2COc2ccc(CC(=O)O)cc21", "values": [{"measurement": "Potency", "setting": "[1]", "value": "inactive"}, {"measurement": "Potency", "setting": "[2]", "value": "inconclusive: 0.0047 µM [inhibitor, full curve, poor fit]"}]}
{"molecule": "COc1cc(N2CCC(N3CCN(C)CC3)CC2)ccc1Nc1ncc(Cl)c(Nc2ccccc2S(=O)(=O)C(C)C)n1", "values": [{"measurement": "Potency", "setting": "[1]", "value": "inconclusive: 56.2 µM [inhibitor, partial curve, poor fit]"}]}
{"molecule": "O=c1cc(-c2ccc(O)c(O)c2)oc2cc(O)cc(O)c12", "values": [{"measurement": "Potency", "setting": "[3]", "value": "inconclusive: 20 µM [inhibitor, partial curve, poor fit]"}, {"measurement": "Potency", "setting": "[4]", "value": "inconclusive: 8.91 µM [inhibitor, full curve]"}, {"measurement": "Potency", "setting": "[5]", "value": "inconclusive: 8.91 µM [cytotoxic, partial curve, poor fit]"}, {"measurement": "Potency", "setting": "[2]", "value": "inconclusive: 12.6 µM [inhibitor, partial curve, poor fit]"}, {"measurement": "Potency", "setting": "[6]", "value": "active: 9.34 µM"}, {"measurement": "Potency", "setting": "[7]", "value": "active: 6.27 µM and active: 5.77 µM and active: 7.57 µM"}, {"measurement": "Potency", "setting": "[8]", "value": "inconclusive: 55.5 µM [inhibitor, partial curve] and inactive"}]}
{"molecule": "O=C(O)c1c(Cl)c(Cl)c(Cl)c(Cl)c1-c1c2cc(I)c(=O)c(I)c-2oc2c(I)c(O)c(I)cc12", "values": [{"measurement": "Potency", "setting": "[1]", "value": "inconclusive: 13.6 µM [inhibitor, partial curve, poor fit]"}, {"measurement": "Potency", "setting": "[9]", "value": "active: 4.25 µM"}, {"measurement": "Potency", "setting": "[10]", "value": "inconclusive: 13.2 µM [inhibitor, partial curve, poor fit]"}]}
{"molecule": "C[C@]12CC[C@H](O)CC1=CCC1C2CC[C@]2(C)C(n3cnc4ccccc43)=CCC12", "note": "(stereo not given in full)", "values": [{"measurement": "Potency", "setting": "[1]", "value": "inactive"}, {"measurement": "Potency", "setting": "[10]", "value": "inactive"}]}
{"molecule": "O=C(O)c1cn(-c2ccc(F)cc2)c2cc(N3CCNCC3)c(F)cc2c1=O", "values": [{"measurement": "Potency", "setting": "[1]", "value": "inconclusive: 39.8 µM [inhibitor, single point]"}, {"measurement": "Potency", "setting": "[4]", "value": "inconclusive: 2.82 µM [inhibitor, full curve, poor fit] and inconclusive: 50.1 µM [inhibitor, partial curve, poor fit]"}, {"measurement": "max response", "setting": "[5]", "value": "inactive: 19.2% and inactive: 20.4%"}, {"measurement": "Potency", "setting": "[9]", "value": "inactive"}, {"measurement": "Potency", "setting": "[11]", "value": "inactive"}, {"measurement": "Potency", "setting": "[10]", "value": "inactive"}]}
{"molecule": "CCCNCC(O)COc1ccccc1C(=O)CCc1ccccc1", "note": "(stereo not given)", "values": [{"measurement": "Potency", "setting": "[1]", "value": "inactive"}, {"measurement": "Potency", "setting": "[4]", "value": "inactive"}, {"measurement": "Potency", "setting": "[12]", "value": "inconclusive: 31.6 µM [inhibitor, partial curve, poor fit]"}, {"measurement": "Potency", "setting": "[10]", "value": "inconclusive: 26.6 µM [inhibitor, single point]"}]}
{"molecule": "CCOC(=O)Nc1ccc(NCc2ccc(F)cc2)nc1N", "values": [{"measurement": "Potency", "setting": "[1]", "value": "inconclusive: 39.8 µM [inhibitor, partial curve]"}, {"measurement": "Potency", "setting": "[9]", "value": "active: 3.09 µM"}, {"measurement": "Potency", "setting": "[13]", "value": "inconclusive: 15.5 µM [inhibitor, partial curve]"}, {"measurement": "Potency", "setting": "Papain (Carica papaya)", "value": "inconclusive: 14.1 µM [inhibitor, partial curve]"}, {"measurement": "Potency", "setting": "[10]", "value": "inconclusive: 26.6 µM [inhibitor, partial curve, poor fit]"}, {"measurement": "Potency", "setting": "[6]", "value": "inconclusive: 18.8 µM [inhibitor, single point]"}, {"measurement": "Potency", "setting": "[7]", "value": "inconclusive: 84.9 µM [inhibitor, single point]"}, {"measurement": "Potency", "setting": "[14]", "value": "inconclusive: 126 µM [activator, partial curve, poor fit]"}, {"measurement": "Potency", "setting": "[8]", "value": "inactive and inconclusive: 95.3 µM [inhibitor, partial curve, poor fit]"}, {"measurement": "Potency", "setting": "[15]", "value": "active: 4.47 µM"}]}
{"molecule": "COc1ccccc1OCCNCC(O)COc1cccc2[nH]c3ccccc3c12", "note": "(stereo not given)", "values": [{"measurement": "Potency", "setting": "[3]", "value": "active: 44.7 µM and active: 35.5 µM"}, {"measurement": "Potency", "setting": "[4]", "value": "inactive"}, {"measurement": "Potency", "setting": "[5]", "value": "active: 25.1 µM and inconclusive: 31.6 µM [cytotoxic, single point]"}, {"measurement": "Potency", "setting": "[2]", "value": "inconclusive: 31.6 µM [inhibitor, full curve] and inconclusive: 6.31 µM [inhibitor, partial curve, poor fit] and inconclusive: 5.62 µM [inhibitor, partial curve, poor fit]"}, {"measurement": "Potency", "setting": "[12]", "value": "inconclusive: 20 µM [inhibitor, partial curve, poor fit]"}, {"measurement": "Potency", "setting": "[10]", "value": "inconclusive: 33.5 µM [inhibitor, single point]"}, {"measurement": "Potency", "setting": "[6]", "value": "inconclusive: 23.7 µM [inhibitor, single point]"}]}
{"molecule": "C[C@]12CCC3c4ccc(O)cc4CCC3C1CCC2=O", "note": "(stereo not given in full)", "values": [{"measurement": "Potency", "setting": "[1]", "value": "inactive"}, {"measurement": "Potency", "setting": "[10]", "value": "inconclusive: 2.63 µM [inhibitor, full curve]"}, {"measurement": "Potency", "setting": "[6]", "value": "inconclusive: 4.17 µM [inhibitor, full curve]"}]}
{"molecule": "COCCOc1nc(-c2ccc(Cl)c(Cl)c2)n(-c2ccc(NC(=O)CCl)cc2)n1", "values": [{"measurement": "Potency", "setting": "[3]", "value": "inconclusive: 17.8 µM [inhibitor, partial curve, poor fit]"}, {"measurement": "Potency", "setting": "[4]", "value": "inconclusive: 12.6 µM [inhibitor, full curve]"}, {"measurement": "Potency", "setting": "[5]", "value": "inconclusive: 10 µM [cytotoxic, partial curve]"}, {"measurement": "Potency", "setting": "[2]", "value": "inconclusive: 7.49 µM [inhibitor, full curve]"}, {"measurement": "Potency", "setting": "[9]", "value": "active: 0.756 µM"}]}
